Laboratory results as given in PubChem BioAssay AID1454 (National Center for Advancing Translational Sciences (NCATS), 2008).
Among all 130,000 compounds or so, about 550 (0.42%) were called active. Inconclusive means that the source gave no clear call. Such entries were picked first, then a sample of the others. Calls come from the whole dose curve; as a rule, active = well fitted inhibition curve with a large enough effect; inconclusive = small, poorly fitted or top-dose-only effect, or effect the other way; inactive = flat fitted curve, though single readings scatter. Potencies of inconclusive entries are left out as doubtful fits.

Assay: qHTS Assay for Inhibitors of the ERK Signaling Pathway using a Homogeneous Screening Assay; Stimulation with EGF; note: nearly all actives have a fitted effect of over 55% in size;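 for activity change, negative = inhibition: plate controls were stimulated vehicle wells for no effect and unstimulated vehicle basal for full effect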
Conditions: HEK293-V1b, EGF-stimulated phospho-ERK AlphaScreen; activity change, negative = inhibition: at the top concentration
Outline: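 After overnight plating in 1% FBS, HEK293-V1b cells received test compound for half an hour, then a 5 min pulse of EGF (25 nM); ERK phosphorylation in lysates was read by bead-based AlphaScreen.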
Potency is the fitted concentration of half-maximal effect; tags give direction and shape of the fitted curve.

SMILES	Potency	activity change, negative = inhibition
CN1Cc2c(N3CCOCC3)nc3sc(C#N)c(N)c3c2CC1(C)C	inconclusive [activator, single point]	
CC1=NN(c2ccccc2)C(=O)/C1=C\c1sccc1C	inconclusive [inhibitor, single point]	
CCOC(=O)C1CCN(C(=O)C(C)N(c2ccc(Oc3ccccc3)cc2)S(C)(=O)=O)CC1 (configuration not stated)	inconclusive [inhibitor, partial curve]	
COc1ccc2c(c1)CC/C(=C/c1cc(OC)c(OC)c(OC)c1)C2=O	inconclusive [inhibitor, single point]	
CN1CCN(c2ncnc3sc(-c4ccccc4)cc23)CC1	inconclusive [inhibitor, single point]	
Cc1ccc2nc(NC(=O)c3ccc(OCC4CCCO4)cc3)sc2c1 (configuration not stated)	inconclusive [inhibitor, single point]	
O=C(c1csnn1)N1CCC2(CC1)CN(C(c1ccccc1)c1ccccc1)C2		inactive: 0.011%
Cc1ccccc1/C=N/n1c(-c2cc(-c3ccccc3)n[nH]2)n[nH]c1=S	inconclusive [inhibitor, single point]	
COc1ccccc1OCCn1cc(/C=N/NC(=O)c2ccncc2)c2ccccc21	inconclusive [inhibitor, single point]	
Cc1nc2c3ccccc3n(Cc3ccccc3F)c2s1	inconclusive [inhibitor, partial curve]	
CN1C2=CC=CC=CC2=[N+](C)C12C=CC(=[N+]([O-])[O-])C=C2[N+](=O)[O-] (configuration not stated)	inconclusive [inhibitor, partial curve]	
[O-]/C(=C(\C(=S)Nc1cccc2ccccc12)[n+]1ccccc1)c1ccc(Cl)s1	inconclusive [inhibitor, partial curve]	
COC(=O)C1=C(C)N(c2ccc(OC)c(OC)c2)C(=O)/C1=C\c1ccco1	inconclusive [inhibitor, partial curve, poor fit]	
Cc1c(C(=O)Nc2nc3ccccc3[nH]2)oc2c(Cl)cccc12	inconclusive [activator, full curve]	
COc1cc(O)c(C(CCN2CCCC2)c2ccc(N(C)C)cc2)c(OC)c1 (configuration not stated)	inconclusive [inhibitor, single point]	
NCC1OC(n2cnc3c(=O)[nH]c(N)nc32)C(O)C1O (configuration not stated)		inactive: 12.8%
NC(=O)c1ccsc1NC(=O)c1ccc(S(=O)(=O)N2CCCc3ccccc32)cc1	inconclusive [inhibitor, partial curve]	
